Experimental data taken from the supplement of paper PMC8728848.
This is one part of the list.

How the values were obtained:
Assay in all cases: glycan array binding signal (z-score within array); higher = stronger binding
Details in all cases: glycan notation: IUPAC condensed, linker removed
Fuc(a1-2)Gal = molecular target: Fuc(a1-2)Gal
How it was run: (§1)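 Glycan array binding is given as a within-array Z-score, which can be read as non-binding when negative. The arrays, 3228 of them, came from the Consortium for Functional Glycomics database and were retained only where the protein sequence was available. Z-scores were averaged across arrays of the same protein sequence at different concentrations or buffers and across linkers.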

Fuc(a1-2)Gal(b1-3)GalNAc = molecular target: Fuc(a1-2)Gal(b1-3)GalNAc
How it was run: as §1

[1] = molecular target: Fuc(a1-2)Gal(b1-3)GalNAc(a1-3)[Fuc(a1-2)]Gal(b1-4)Glc
How it was run: as §1

[2] = molecular target: Fuc(a1-2)Gal(b1-3)GalNAc(a1-3)[Fuc(a1-2)]Gal(b1-4)GlcNAc
How it was run: as §1

[3] = molecular target: Fuc(a1-2)Gal(b1-3)GalNAc(b1-3)Gal
How it was run: as §1

[4] = molecular target: Fuc(a1-2)Gal(b1-3)GalNAc(b1-3)Gal(a1-4)Gal(b1-4)Glc
How it was run: as §1

[5] = molecular target: Fuc(a1-2)Gal(b1-3)GalNAc(b1-4)[Neu5Ac(a2-3)]Gal(b1-4)Glc
How it was run: as §1

Fuc(a1-2)Gal(b1-3)GlcNAc = molecular target: Fuc(a1-2)Gal(b1-3)GlcNAc
How it was run: as §1

[6] = molecular target: Fuc(a1-2)Gal(b1-3)GlcNAc(b1-2)Man(a1-3)[Fuc(a1-2)Gal(b1-3)GlcNAc(b1-2)Man(a1-6)]Man(b1-4)GlcNAc(b1-4)GlcNAc
How it was run: as §1

[7] = molecular target: Fuc(a1-2)Gal(b1-3)GlcNAc(b1-2)Man(a1-3)[Fuc(a1-2)Gal(b1-3)GlcNAc(b1-2)Man(a1-6)]Man(b1-4)GlcNAc(b1-4)[Fuc(a1-6)]GlcNAc
How it was run: as §1

[8] = molecular target: Fuc(a1-2)Gal(b1-3)GlcNAc(b1-3)Gal(b1-4)Glc
How it was run: as §1

[9] = molecular target: Fuc(a1-2)Gal(b1-3)GlcNAc(b1-3)GalNAc
How it was run: as §1

[10] = molecular target: Fuc(a1-2)Gal(b1-3)GlcNAc(b1-3)[Fuc(a1-2)Gal(b1-3)GlcNAc(b1-6)]GalNAc
How it was run: as §1

[11] = molecular target: Fuc(a1-2)Gal(b1-3)GlcNAc(b1-3)[Gal(b1-4)GlcNAc(b1-6)]Gal(b1-4)Glc
How it was run: as §1

[12] = molecular target: Fuc(a1-2)Gal(b1-3)GlcNAc(b1-3)[Neu5Ac(a2-6)Gal(b1-4)GlcNAc(b1-6)]Gal(b1-4)Glc
How it was run: as §1

[13] = molecular target: Fuc(a1-2)Gal(b1-3)GlcNAc6S
How it was run: as §1

[14] = molecular target: Fuc(a1-2)Gal(b1-3)[Fuc(a1-4)]GlcNAc
How it was run: as §1

[15] = molecular target: Fuc(a1-2)Gal(b1-3)[Fuc(a1-4)]GlcNAc(b1-2)Man(a1-3)[Fuc(a1-2)Gal(b1-3)[Fuc(a1-4)]GlcNAc(b1-2)Man(a1-3)]Man(b1-4)GlcNAc(b1-4)GlcNAc
How it was run: as §1

[16] = molecular target: Fuc(a1-2)Gal(b1-3)[Fuc(a1-4)]GlcNAc(b1-2)Man(a1-3)[Fuc(a1-2)Gal(b1-3)[Fuc(a1-4)]GlcNAc(b1-2)Man(a1-6)]Man(b1-4)GlcNAc(b1-4)[Fuc(a1-6)]GlcNAc(b1-4)[Fuc(a1-6)]GlcNAc
How it was run: as §1

[17] = molecular target: Fuc(a1-2)Gal(b1-3)[Fuc(a1-4)]GlcNAc(b1-3)[Fuc(a1-3)[Gal(b1-4)]GlcNAc(b1-6)]Gal(b1-4)Glc
How it was run: as §1

[18] = molecular target: Fuc(a1-2)Gal(b1-3)[Fuc(a1-4)]GlcNAc(b1-3)[Gal(b1-4)GlcNAc(b1-6)]Gal(b1-4)Glc
How it was run: as §1

[19] = molecular target: Fuc(a1-2)Gal(b1-4)Fuc(a1-3)]GlcNAc(b1-2)Man(a1-3)[Fuc(a1-2)Gal(b1-4)[Fuc(a1-3)]GlcNAc(b1-2)Man(a1-6)]Man(b1-4)GlcNAc(b1-4)GlcNAc
How it was run: as §1

Fuc(a1-2)Gal(b1-4)Glc = molecular target: Fuc(a1-2)Gal(b1-4)Glc
How it was run: as §1

Fuc(a1-2)Gal(b1-4)Glc6S = molecular target: Fuc(a1-2)Gal(b1-4)Glc6S
How it was run: as §1

Fuc(a1-2)Gal(b1-4)GlcNAc = molecular target: Fuc(a1-2)Gal(b1-4)GlcNAc
How it was run: as §1

[20] = molecular target: Fuc(a1-2)Gal(b1-4)GlcNAc(b1-2)Man
How it was run: as §1

[21] = molecular target: Fuc(a1-2)Gal(b1-4)GlcNAc(b1-2)Man(a1-3)[Fuc(a1-2)Gal(b1-4)GlcNAc(b1-2)Man(a1-6)]Man(b1-4)GlcNAc(b1-4)GlcNAc
How it was run: as §1

[22] = molecular target: Fuc(a1-2)Gal(b1-4)GlcNAc(b1-2)Man(a1-3)[Fuc(a1-2)Gal(b1-4)GlcNAc(b1-2)Man(a1-6)]Man(b1-4)GlcNAc(b1-4)[Fuc(a1-6)]GlcNAc
How it was run: as §1

[23] = molecular target: Fuc(a1-2)Gal(b1-4)GlcNAc(b1-2)[Fuc(a1-2)Gal(b1-4)GlcNAc(b1-4)]Man(a1-3)[Fuc(a1-2)Gal(b1-4)GlcNAc(b1-2)Man(a1-6)]Man(b1-4)GlcNAc(b1-4)GlcNAc
How it was run: as §1

[24] = molecular target: Fuc(a1-2)Gal(b1-4)GlcNAc(b1-3)Gal(b1-4)GlcNAc
How it was run: as §1

[25] = molecular target: Fuc(a1-2)Gal(b1-4)GlcNAc(b1-3)Gal(b1-4)GlcNAc(b1-2)Man(a1-3)[Fuc(a1-2)Gal(b1-4)GlcNAc(b1-3)Gal(b1-4)GlcNAc(b1-2)Man(a1-6)]Man(b1-4)GlcNAc(b1-4)GlcNAc
How it was run: as §1

[26] = molecular target: Fuc(a1-2)Gal(b1-4)GlcNAc(b1-3)Gal(b1-4)GlcNAc(b1-3)Gal(b1-4)GlcNAc
How it was run: as §1

[27] = molecular target: Fuc(a1-2)Gal(b1-4)GlcNAc(b1-3)GalNAc
How it was run: as §1

[28] = molecular target: Fuc(a1-2)Gal(b1-4)GlcNAc(b1-3)[Fuc(a1-2)Gal(b1-4)GlcNAc(b1-6)]GalNAc
How it was run: as §1

[29] = molecular target: Fuc(a1-2)Gal(b1-4)GlcNAc(b1-3)[Fuc(a1-3)[Gal(b1-4)]GlcNAc(b1-6)]Gal(b1-4)Glc
How it was run: as §1

[30] = molecular target: Fuc(a1-2)Gal(b1-4)GlcNAc(b1-6)GalNAc
How it was run: as §1

[31] = molecular target: Fuc(a1-2)Gal(b1-4)GlcNAc6S
How it was run: as §1

[32] = molecular target: Fuc(a1-2)Gal(b1-4)[Fuc(a1-3)]GlcNAc
How it was run: as §1

[33] = molecular target: Fuc(a1-2)Gal(b1-4)[Fuc(a1-3)]GlcNAc(b1-2)Man(a1-3)[Fuc(a1-2)Gal(b1-4)[Fuc(a1-3)]GlcNAc(b1-2)Man(a1-6)]Man(b1-4)GlcNAc(b1-4)[Fuc(a1-6)]GlcNAc
How it was run: as §1

[34] = molecular target: Fuc(a1-2)Gal(b1-4)[Fuc(a1-3)]GlcNAc(b1-2)[Fuc(a1-2)Gal(b1-4)[Fuc(a1-3)]GlcNAc(b1-4)]Man(a1-3)[Fuc(a1-2)Gal(b1-4)[Fuc(a1-3)]GlcNAc(b1-2)Man(a1-6)]Man(b1-4)GlcNAc(b1-4)GlcNAc
How it was run: as §1

[35] = molecular target: Fuc(a1-2)Gal(b1-4)[Fuc(a1-3)]GlcNAc(b1-3)Gal(b1-4)[Fuc(a1-3)]GlcNAc
How it was run: as §1

[36] = molecular target: Fuc(a1-2)Gal(b1-4)[Fuc(a1-3)]GlcNAc(b1-3)Gal(b1-4)[Fuc(a1-3)]GlcNAc(b1-3)Gal(b1-4)[Fuc(a1-3)]GlcNAc
How it was run: as §1

[37] = molecular target: Fuc(a1-2)Gal(b1-4)[Fuc(a1-3)]GlcNAc(b1-3)GalNAc
How it was run: as §1

[38] = molecular target: Fuc(a1-2)Gal(b1-4)[Fuc(a1-3)]GlcNAc(b1-3)[Neu5Ac(a2-6)Gal(b1-4)GlcNAc(b1-6)]Gal(b1-4)Glc
How it was run: as §1

[39] = molecular target: Fuc(a1-2)Gal3S(b1-4)GlcNAc
How it was run: as §1

B1: ECL (Erythrina cristagalli), Q6YD91 (protein)
chain: VETISFSFSEFEPGNNDLTLQGAAIITQSGVLQLTKINQNGMPAWDSTGRTLYTKPVHIWDMTTGTVASFETRFSFSIEQPYTRPLPADGLVFFMGPTKSKPAQGYGYLGVFNNSKQDNSYQTLAVEFDTFSNPWDPPQVPHIGIDVNSIRSIKTQPFQLDNGQVANVVIKYDASSKILLAVLVYPSSGAIYTIAEIVDVKQVLPEWVDVGLSGATGAQRDAAETHDVYSWSFHASLPETND
glycan array binding signal (z-score) (Fuc(a1-2)Gal): -0.188
glycan array binding signal (z-score) (Fuc(a1-2)Gal(b1-3)GalNAc): -0.29
glycan array binding signal (z-score) [1]: -0.092
glycan array binding signal (z-score) [2]: -0.443
glycan array binding signal (z-score) [3]: -0.245
glycan array binding signal (z-score) [4]: -0.245
glycan array binding signal (z-score) [5]: -0.287
glycan array binding signal (z-score) (Fuc(a1-2)Gal(b1-3)GlcNAc): -0.112
glycan array binding signal (z-score) [6]: 0.03
glycan array binding signal (z-score) [7]: -0.206
glycan array binding signal (z-score) [8]: -0.22
glycan array binding signal (z-score) [9]: -0.346
glycan array binding signal (z-score) [10]: -0.198
glycan array binding signal (z-score) [11]: -0.197
glycan array binding signal (z-score) [12]: -0.241
glycan array binding signal (z-score) [13]: -0.1
glycan array binding signal (z-score) [14]: -0.305
glycan array binding signal (z-score) [15]: 0.051
glycan array binding signal (z-score) [16]: -0.246
glycan array binding signal (z-score) [17]: -0.439
glycan array binding signal (z-score) [18]: -0.094
glycan array binding signal (z-score) [19]: -0.239
glycan array binding signal (z-score) (Fuc(a1-2)Gal(b1-4)Glc): -0.177
glycan array binding signal (z-score) (Fuc(a1-2)Gal(b1-4)Glc6S): -0.104
glycan array binding signal (z-score) (Fuc(a1-2)Gal(b1-4)GlcNAc): 0.042
glycan array binding signal (z-score) [20]: -0.288
glycan array binding signal (z-score) [21]: 0.819
glycan array binding signal (z-score) [22]: -0.031
glycan array binding signal (z-score) [23]: 0.249
glycan array binding signal (z-score) [24]: 0.293
glycan array binding signal (z-score) [25]: 2.39
glycan array binding signal (z-score) [26]: 0.506
glycan array binding signal (z-score) [27]: -0.204
glycan array binding signal (z-score) [28]: -0.127
glycan array binding signal (z-score) [29]: 0.053
glycan array binding signal (z-score) [30]: -0.165
glycan array binding signal (z-score) [31]: 0.963
glycan array binding signal (z-score) [32]: -0.145
glycan array binding signal (z-score) [33]: -0.185
glycan array binding signal (z-score) [34]: 0.055
glycan array binding signal (z-score) [35]: -0.186
glycan array binding signal (z-score) [36]: -0.004
glycan array binding signal (z-score) [37]: 1.38
glycan array binding signal (z-score) [38]: -0.29
glycan array binding signal (z-score) [39]: -0.224
